Measured values taken from PubChem BioAssay (NCI).
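The compound was tested at five concentrations on cells cultured in 96-well plates, with a 48-hour exposure period. GI50 marks 50% less growth.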 Some entries of the source have several records that differ or are many. The list is limited to them. An entry can have further records. Results that share an entry are repeats across runs, samples, wells, individuals or studies. Brackets tell where a record comes from. Letters count within one entry.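 At the TGI there is no net growth.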

Columns and labels:
Test in all cases: NCI-60 cell line screen, 48 h
NCI-H460 lung = test system: NCI-H460 lung
HS 578T breast = test system: HS 578T breast
CAKI-1 renal = test system: CAKI-1 renal
A498 renal = test system: A498 renal
RPMI-8226 leukemia = test system: RPMI-8226 leukemia
BT-549 breast = test system: BT-549 breast
MDA-MB-435 = test system: MDA-MB-435
HOP-92 NSCLC = test system: HOP-92 NSCLC
NCI-H522 lung = test system: NCI-H522 lung

CN(C)c1ccc(/C=C(\C#N)c2ccccc2)cc1
TGI (NCI-H460 lung): 15.4 µM [sample A, 1 test] and 4.94 µM [sample B, mean of 2 tests] and > 100 µM [sample C, 1 test] | GI50 (HS 578T breast): 579 nM [sample A, 1 test] and 260 nM [sample B, mean of 2 tests] and 2.78 µM [sample C, 1 test] | TGI (HS 578T breast): > 100 µM [sample A, 1 test] and 766 nM [sample B, mean of 2 tests] and > 100 µM [sample C, 1 test] | TGI (CAKI-1 renal): > 100 µM [sample A, 1 test] and 3.52 µM [sample B, mean of 2 tests] and > 100 µM [sample C, 1 test] | TGI (A498 renal): 987 nM [sample A, 1 test] and > 26.3 µM [sample B, mean of 2 tests] and 25.2 µM [sample C, 1 test] | TGI (RPMI-8226 leukemia): 4.51 µM [sample A, mean of 2 tests] and 69.6 µM [sample B, 1 test] | TGI (BT-549 breast): > 100 µM [sample A, 1 test] and 602 nM [sample B, 1 test] and 89.7 µM [sample C, 1 test] | TGI (MDA-MB-435): 493 nM [sample A, 1 test] and 211 nM [sample B, 1 test] and > 100 µM [sample C, 1 test] | TGI (HOP-92 NSCLC): 8.78 µM [sample A, 1 test] and > 100 µM [sample B, mean of 2 tests] and > 100 µM [sample C, 1 test] | TGI (NCI-H522 lung): 77.3 µM [sample A, 1 test] and 5.07 µM [sample B, 1 test]
